Measured values reported in PubChem BioAssay AID1461 (National Center for Advancing Translational Sciences (NCATS), 2008).
Among all 220,000 compounds or so, about 2,300 (1%) were called active. Inconclusive results, whose numbers are uncertain, are shown with a selection of clear calls. Calls follow the shape of the dose curve; as a rule, active = well fitted inhibition curve with a large enough effect; inconclusive = small, poorly fitted or top-dose-only effect, or effect the other way; inactive = no such curve, though single readings can be large or run the other way. No potency is given beside an inconclusive call; the fits are too rough.

biological target: Neuropeptide S receptor (Homo sapiens) (UniProt Q6W5P4); test: qHTS Assay for Antagonists of the Neuropeptide S Receptor: cAMP Signal Transduction; conditions: CHO-NPSR cells, cAMP TR-FRET, antagonist mode; series mostly up to 38.3 µM; also: nearly all actives have a fitted effect of over 50% in size
Sequence of UniProt Q6W5P4 (Q6W5P4 whole entry, looked up): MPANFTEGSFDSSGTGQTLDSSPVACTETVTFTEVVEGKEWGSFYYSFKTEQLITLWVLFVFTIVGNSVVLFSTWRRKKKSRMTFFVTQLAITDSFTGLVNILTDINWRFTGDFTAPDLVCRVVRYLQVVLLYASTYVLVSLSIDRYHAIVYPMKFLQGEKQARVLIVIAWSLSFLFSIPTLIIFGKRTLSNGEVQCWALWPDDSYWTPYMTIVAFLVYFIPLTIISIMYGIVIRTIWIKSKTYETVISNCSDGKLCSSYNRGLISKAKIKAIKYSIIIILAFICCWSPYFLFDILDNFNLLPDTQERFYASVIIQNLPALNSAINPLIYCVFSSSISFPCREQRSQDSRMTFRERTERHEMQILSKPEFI
Potency is read from the fitted curve at half-maximal effect; tags tell the direction and shape of the fitted curve.

| SMILES | Potency |
| --- | --- |
| Fc1cccc(/C=C2\CCCC3=C2NC(=S)NC3c2cccc(F)c2)c1 (configuration not stated) | inconclusive [activator, single point] |
| O=C(Nc1nc(-c2ccccc2)cs1)c1ccc2c(=O)n3c(nc2c1)CCCCC3 | inconclusive [inhibitor, single point] |
| O=c1[nH]c(=S)c2c(n1-c1ccccc1)CCC2 | inconclusive [activator, partial curve] |
| COc1nn(CC(=O)N2N=C(C(F)F)CC2(O)C(F)F)cc1[N+](=O)[O-] (configuration not stated) | inactive |
| COc1ccc(-c2nc3ccccc3s2)cc1O | inconclusive [inhibitor, single point] |
| CC[n+]1ccc(/C=C/c2ccc(N(C)C)cc2)c2ccccc21 | inconclusive [activator, full curve] |
| Cc1cccc(C(=O)CC(=O)c2cc(Cl)ccc2O)c1 | inconclusive [inhibitor, single point] |
| Cn1c(=O)cc(SCC(=O)NCCCN2CCOCC2)c2ccc(Cl)cc21 | inconclusive [inhibitor, partial curve] |
| CSc1nc2nccc(-c3ccc(Oc4ccccc4)cc3)n2n1 | inconclusive [inhibitor, partial curve] |
| O=C(Nc1nc2ccc(Cl)cc2s1)c1ccc(N2CCCCC2)c([N+](=O)[O-])c1 | inactive |
| COc1ccc(NC2(c3ccc(Cl)cc3)C(=O)c3ccccc3C2=O)cc1 | inconclusive [inhibitor, partial curve] |
| Cc1ccc(-n2c(SCC(=O)Nc3ncc(Cl)cc3Cl)nc3ccccc32)cc1 | inconclusive [inhibitor, single point] |
| Cn1c(C(C#N)C2=C(Cl)C(=O)N(c3ccccc3)C2=O)nc2ccccc21 (configuration not stated) | inconclusive [inhibitor, single point] |
| Cc1ccccc1NC(=O)N1C2CCCC1CC(NC(=O)C(C)(C)C)C2 (configuration not stated) | inconclusive [inhibitor, full curve, poor fit] |
| CCOc1ccc(CCNC(=O)C2CCN(c3nnc(-n4cccc4)s3)CC2)cc1 | inconclusive [inhibitor, single point] |
| COc1ccc2[nH]c(=S)[nH]c2c1 | inactive |
| CCCN1C(=O)/C(=C\C=C2\N(CC)c3ccccc3C2(C)C)SC1=S | inconclusive [activator, partial curve] |
| CCCCCCNc1nc(NCc2ccco2)nc(OCC)n1 | inconclusive [inhibitor, single point] |
| COc1ccccc1C1CC(c2ccc(Cl)cc2Cl)Nc2nc(N)nn21 (configuration not stated) | inconclusive [inhibitor, single point] |
| CC(=O)N1CCN(c2ccccc2NC(=O)COc2ccc(Cl)cc2Cl)CC1 | inconclusive [inhibitor, partial curve] |
| O=c1[nH]ncc(N2CCCCCC2)c1Cl | inactive |
| Cc1ccc(NC(=O)Nc2c(Cl)cccc2Cl)cn1 | inconclusive [activator, single point] |
| O=C(NCc1cccs1)c1ccc(Cl)s1 | inactive |

| SMILES | Potency |
| --- | --- |
| CCNc1nc(Sc2ccc(C)cc2)cc(C(F)(F)F)n1 | inactive |
| Nc1nnc(SCC(=O)c2ccc3ccccc3c2)s1 | inconclusive [activator, single point] |
| CC(C)(C)c1ccc(OCc2ccc(C(=O)N/N=C/c3ccc(O)c(O)c3)cc2)cc1 | active: 12.6 µM |
| CCOc1ccccc1C1C(C(N)=O)=C(C)Nc2nc(-c3cccc(C)c3)nn21 (configuration not stated) | inconclusive [inhibitor, single point] |
| CC1CCCC(C)N1C(=O)Cn1c(SCC(=O)Nc2ccc3c(c2)OCO3)nc2ccccc21 (configuration not stated) | inconclusive [inhibitor, partial curve] |
| CCC(c1nnnn1Cc1ccco1)N(Cc1cc2cc(C)cc(C)c2[nH]c1=O)CC1CCCO1 (configuration not stated) | inconclusive [inhibitor, partial curve] |
| CCOC(=O)c1cnn(-c2ccccc2)c1-n1cccc1C(=O)C(=O)Nc1ccc(OC)cc1 | inconclusive [inhibitor, single point] |
| Cc1cc(C)nc(NS(=O)(=O)c2ccc(NC(=O)c3cccs3)cc2)n1 | inconclusive [inhibitor, full curve, poor fit] |
| COc1cc(/C=C(\C#N)c2ccccn2)ccc1OCc1ccccc1Cl | inconclusive [inhibitor, single point] |
| CCOc1ccc(NC(=O)/C=C/c2ccccc2)c([N+](=O)[O-])c1 | inactive |
| COc1ccc(CNC(=O)C(c2ccc(C)o2)N(Cc2cccs2)C(=O)Cc2cccs2)cc1 (configuration not stated) | inconclusive [inhibitor, partial curve] |
| CCOC(=O)c1ccc(NC(=O)CSc2nc3c(c(=O)n2CC)SC(C)C3)cc1 (configuration not stated) | inconclusive [inhibitor, partial curve] |
| CCN(CC)CCNC(CC(=O)Nc1ccc(Cl)cc1Cl)C(=O)O (configuration not stated) | inactive |
| Cc1[nH]c2c(Br)cccc2c1[C@H]1[C@@H](CC#N)C1(C)C | inconclusive [inhibitor, full curve, poor fit] |
| CCOC(=O)C1=C(C)N=c2s/c(=C\C(=O)OC)c(=O)n2C1c1ccc(OC)cc1 (configuration not stated) | inconclusive [inhibitor, partial curve] |
| CCOC(=O)C1CCN(C(=O)c2ccccc2NC(=O)c2ccc(Cl)cc2)CC1 | inactive |
| Cn1c2ccccc2c(=O)c2c(=O)n(Cc3ccco3)c(-c3ccc(Cl)cc3Cl)nc21 | inconclusive [activator, partial curve] |
| C=CCNC(=O)c1ccc(-c2nc(-c3ccc(Cl)c(Cl)c3)cs2)cc1 | inconclusive [inhibitor, single point] |
| Cc1[nH]n(-c2ccccc2)c(=O)c1C=NCCc1ccccc1 | inactive |
| Cn1cc([N+](=O)[O-])c(C(=O)N/N=C/c2cc3c(cc2Br)OCO3)n1 | inactive |
| O=S(=O)(c1ccccc1F)N1CCN(c2nc3ccccc3s2)CC1 | inactive |
| O=C(CCN1CCN(c2ccc(Cl)cc2)CC1)Nc1ccccc1F | inconclusive [inhibitor, full curve] |
| O=C(NC1CCN(C(=O)N2c3ccccc3Sc3ccccc32)CC1)c1ccccc1Cl | inconclusive [inhibitor, single point] |

| SMILES | Potency |
| --- | --- |
| O=S(=O)(c1ccc(Br)s1)N1CCN(c2ccnc3cc(Cl)ccc23)CC1 | inconclusive [activator, single point] |
| O=C(Nc1nc2nc(-c3ccccc3)cc(-c3ccccc3)n2n1)c1ccco1 | inconclusive [inhibitor, partial curve] |
| Cc1ccc(CCNC(=O)c2coc3nc4ccccc4nc23)cc1 | inconclusive [inhibitor, single point] |
| Cc1c(C(=O)C(=O)N2CCN(C)CC2)c2ccccc2n1C | inactive |
| CN(C)c1cc(-c2ccc(Cl)cc2Cl)oc(=O)c1Cl | inconclusive [activator, single point] |
| N#Cc1cccc(C(c2nnnn2C2CCCC2)N2CCCCCC2)c1 (configuration not stated) | inconclusive [inhibitor, partial curve] |
| c1ccc(N2CCN(c3ccc4nncn4n3)CC2)nc1 | inconclusive [inhibitor, single point] |
| O=C1CC(N2CCC(c3nc4ccccc4o3)CC2)C(=O)N1c1ccc(Cl)c(C(F)(F)F)c1 (configuration not stated) | inconclusive [inhibitor, partial curve, poor fit] |
| COc1cc(C(CCN2CCN(c3ccccc3)CC2)c2c(OC)cc(OC)c3ccc(=O)oc23)cc(OC)c1OC (configuration not stated) | active: 10 µM |
| CCn1ncc(CNC(=O)C2(C)CC2(Cl)Cl)c1C (configuration not stated) | inactive |
| COc1ccc(/C=N/NC(=O)c2ccc(O)cc2)cc1CN1CCCc2ccccc21 | inconclusive [inhibitor, partial curve, poor fit] |
| Fc1ccc(-n2c(Cc3ccccc3)nnc2SCc2nc(-c3cccs3)no2)cc1 | inconclusive [inhibitor, partial curve, poor fit] |
| COc1cc(-c2nnc(SCc3cc(=O)oc4cc(C)ccc34)o2)cc(OC)c1OC | inactive |
| CCOC(=O)c1ccc(N2C(=O)CC(N(Cc3ccc4c(c3)OCO4)C(=O)Nc3ccccc3)C2=O)cc1 (configuration not stated) | inconclusive [inhibitor, partial curve] |
| CCc1nc(SCC(=O)N2c3ccccc3Sc3ccccc32)c2ccccc2n1 | inconclusive [inhibitor, partial curve] |
| Cc1ccc(C#N)c(SCc2ccccc2[N+](=O)[O-])n1 | inactive |
| Cc1ccc(/C=N/NC(=O)c2ccccc2OCc2cccc(Br)c2)o1 | inconclusive [inhibitor, single point] |
| O=C(CSc1ncnc2c1oc1ccccc12)Nc1nc2ccccc2s1 | inconclusive [inhibitor, single point] |
| CCOc1ccc(NC(=O)CCN2CCN(S(=O)(=O)c3cc(Cl)ccc3OC)CC2)cc1 | inactive |
| COC(=O)C1C(=O)c2c([nH]c(C(=O)OC3CCCC3C)c2C)CC1C (configuration not stated) | inconclusive [inhibitor, partial curve] |
| COC(=O)c1cc(NC2c3ccccc3C(=O)N2CCN2CCOCC2)cc(C(=O)OC)c1 (configuration not stated) | inconclusive [inhibitor, single point] |
